# Values joined by “and” are separate entries in the source; they are usually repeats but may differ in a detail not shown here. Identical values can stand only once. Counter-ions that a name gives are not always drawn. About 620 (11%) of roughly 5,800 compounds showed activity.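 Rule for the calls: active = score above a cut-off or among the top three wells of a plate; in these data no inactive exceeds 0.85.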 This is a selection; strong and weak results do not stand in their true shares.
# System: primary human hepatic stellate cells (donor 1)
# Test: scaled lipid accumulation score (0 = DMSO-like, 1 = nortriptyline-like); higher = stronger HSC inactivation (lipid re-accumulation), active = hit call of the paper
# Settings: 48 h
# [1] = library stock concentration: 3.33 mM
# [2] = library stock concentration: 10 mM
# [3] = library stock concentration: 1 mM
smiles,measurement,setting,value
Cc1cc(C)nc(NS(=O)(=O)c2ccc(N)cc2)n1 [Sulfamethazine],scaled lipid accumulation score,[1],inactive: ≤ 0
same,scaled lipid accumulation score,library stock concentration: 7.2 mM,inactive: ≤ 0
same,scaled lipid accumulation score,[2],inactive: ≤ -0.001 and inactive: ≤ 0
Cc1cc(C)nc(NS(=O)(=O)c2ccc(N)cc2)n1 [Sulfamethazine sodium salt],scaled lipid accumulation score,,inactive: ≤ 0
CC1(C)O[C@@H]2C[C@H]3[C@@H]4C[C@H](F)C5=CC(=O)C=C[C@]5(C)[C@@]4(F)[C@@H](O)C[C@]3(C)[C@]2(C(=O)CO)O1 [Fluocinolone Acetonide],scaled lipid accumulation score,[1],inactive: ≤ 0
same,scaled lipid accumulation score,[2],inactive: ≤ 0
CC1(C)O[C@@H]2C[C@H]3[C@@H]4C[C@H](F)C5=CC(=O)C=C[C@]5(C)[C@@]4(F)[C@@H](O)C[C@]3(C)[C@]2(C(=O)CO)O1 [Fluocinolone acetonide],scaled lipid accumulation score,library stock concentration: 4.4 mM,inactive: 0.002 and inactive: 0.008
CCCCCCCC/C=C\CCCCCCCC(=O)O.NCCO,scaled lipid accumulation score,[2],inactive: 0.028
CC(C)=CCc1c2c(c3occ(-c4ccc(O)c(O)c4)c(=O)c3c1O)C=CC(C)(C)O2 [Pomiferin],scaled lipid accumulation score,[2],inactive: 0.384
COc1cc(NS(=O)(=O)c2ccc(N)cc2)ncn1 [Sulfamonomethoxine],scaled lipid accumulation score,,inactive: ≤ 0
same,scaled lipid accumulation score,library stock concentration: 7.1 mM,inactive: ≤ 0
same,scaled lipid accumulation score,[2],inactive: ≤ 0
Cc1nc(C(=O)NCC(=O)O)c(O)c2ccc(Oc3ccccc3)cc12,scaled lipid accumulation score,[1],inactive: ≤ 0
same,scaled lipid accumulation score,[2],inactive: ≤ 0
C=C1C(=O)OC2CC1C(OC(C)=O)C/C(C)=C/CC/C(C)=C/CC[C@]2(C)O (stereo not given in full) [Crassin acetate],scaled lipid accumulation score,[2],active: 1.04
O=C1NC(=O)C(c2cnc3ccccn23)=C1c1cn2c3c(cc(F)cc13)CN(C(=O)N1CCCCC1)CC2,scaled lipid accumulation score,library stock concentration: 80 uM,active: 0.956
same,scaled lipid accumulation score,[2],active: 0.857
COc1cccc2c1C(=O)c1c(O)c3c(c(O)c1C2=O)C[C@@](O)(C(=O)CO)C[C@@H]3O[C@H]1C[C@H](N)[C@H](O[C@@H]2CCCCO2)[C@H](C)O1 [Pirarubicin],scaled lipid accumulation score,[1],inactive: 0.282
same,scaled lipid accumulation score,[2],inactive: 0.25
O=C(O)CCC/C=C/C[C@@H]1[C@@H](CC[C@@H](O)CCc2ccccc2)[C@H](O)C[C@@H]1O [5-trans Latanoprost (free acid)],scaled lipid accumulation score,[3],inactive: ≤ 0
CCCCCCCCCCCCCCC[C@@H](O)[C@H](CO)NC(=O)CCCCCCC [C8 Dihydroceramide],scaled lipid accumulation score,[3],inactive: ≤ -0.021
COc1cc(COc2cc(N)c(Cl)cc2C(=O)CCC2CCN(CCNS(C)(=O)=O)CC2)cc(OC)c1.Cl,scaled lipid accumulation score,[2],active: 1.06
CCCOc1ccccc1-c1nc2[nH]nnc2c(=O)[nH]1 [Zaprinast],scaled lipid accumulation score,,inactive: 0.03
same,scaled lipid accumulation score,[2],inactive: ≤ 0
same,scaled lipid accumulation score,library stock concentration: 18.4 mM,inactive: ≤ -0.021

# — the supplement of paper PMC9135407
